{"source": "ChEMBL document CHEMBL4888484", "about": "“Replenishing the malaria drug discovery pipeline: Screening and hit evaluation of the MMV Hit Generation Library 1 (HGL1) against asexual blood stage Plasmodium falciparum ,using a nano luciferase reporter read-out” (2022)", "note": "Out of some 4,800 compounds screened, about 420 (8.8%) showed an effect of 50% or more. The list shows a part of the results."}
{"tested_on": "Plasmodium falciparum", "assay": "Confirmatory screen in NF54 nanoGlo assay, in single point, at 2uM, 72h", "type": "functional, Erythrocyte", "conditions": "timepoint 72 hour", "units": {"% Inhibition": "%"}}
{"smiles": "Cc1nc2cccnc2n1-c1cc(C(=O)NCCc2ccccc2)ccc1Cl", "% Inhibition": 1}
{"smiles": "Cc1coc(-c2ccc(C)c(NC(=O)CCN3C(=O)CCC3=O)c2)n1", "% Inhibition": -10}
{"smiles": "CNC(=O)N1CCN(c2cc(C)nc(C3CC3)n2)CC1", "% Inhibition": -18}
{"smiles": "Cc1[nH]c2ccnn2c(=O)c1CC(=O)N1CC[C@H](C)c2cccc(O)c21", "% Inhibition": -2}
{"smiles": "COc1ccc(N2CCN(C(=O)CN3C(=O)COc4cc(C)ccc43)CC2)cc1", "% Inhibition": 1}
{"smiles": "O=c1cc(-c2ccccc2F)[nH]c2cc3c(cc12)OCO3", "% Inhibition": -3}
{"smiles": "Cc1cc2c(cc1C)[C@H](C(=O)Nc1cc(C(N)=O)ccc1Cl)CO2", "% Inhibition": -1}
{"smiles": "C#C[C@H](C)N(C)Cc1c[nH]c(C(=O)OC)c1", "% Inhibition": -12}
{"smiles": "Nc1nc(-c2ccc(Br)cc2)nc(-c2ccc(Br)cc2)n1", "% Inhibition": -4}
{"smiles": "Cc1cc(-c2csc(CN3C(=O)CNC3=O)n2)cc(C)c1F", "% Inhibition": -4}
{"smiles": "Cc1ccc(C)c(NC(=O)N2CC(n3cnnc3-c3ccccc3)C2)c1", "% Inhibition": -7}
{"smiles": "O=C(c1ccc(COc2ccc3ccccc3c2)o1)N1CCN(c2ccccn2)CC1", "% Inhibition": 2}
{"smiles": "COc1cccc(-c2cc3c(N4CCN(c5ccccn5)CC4)nccn3n2)c1", "% Inhibition": 0}
{"smiles": "CCC(=O)Nc1cc(Br)c(N)c(Br)c1", "% Inhibition": -12}
{"smiles": "O=C(N[C@H]1C[C@@H]2C[C@H]1CN2C(=O)c1ccc(C(F)(F)F)s1)c1cccnc1", "% Inhibition": 4}
{"smiles": "O=C(c1ccccc1Cl)N1CCC[C@H](n2cnc3ccccc3c2=O)C1", "% Inhibition": 18}
{"smiles": "Cc1n[nH]c2ncc(NC(=O)c3ccc(CCC(F)(F)F)cc3)cc12", "% Inhibition": 8}
{"smiles": "O=C(NC1CCCC1)N1CCC2(CC1)C[C@@H](OCc1ccccc1)CCO2", "% Inhibition": -3}
{"smiles": "Cc1cccc(C)c1NC(=O)C1CCN(S(=O)(=O)c2c(C)nn(-c3ccccc3)c2C)CC1", "% Inhibition": -6}
{"smiles": "CN(CC(=O)Nc1ccccc1C(F)(F)F)C1CNC1", "% Inhibition": 3}
{"smiles": "COc1ccccc1[C@H]1CC(O)=Nc2c1ncn2-c1cc(F)cc(F)c1", "% Inhibition": -4}
{"smiles": "CC1OC2(OC1C)C(=O)N(C1CCOC1=O)c1ccccc12", "note": "(stereo not given)", "% Inhibition": -7}
{"smiles": "COc1ccc(-c2nc(N)s[n+]2-c2ccccc2)cc1", "% Inhibition": -2}
{"smiles": "CC1(C)CCc2nnc(COc3ccc(C#N)cc3)n2C1", "% Inhibition": 1}
{"smiles": "COc1ccnc(N2CCc3nn(C(C)C)c(=O)cc3C2)n1", "% Inhibition": -4}
{"smiles": "O=C(Cn1c(=O)n(Cc2ccco2)c(=O)c2ccccc21)NC1CCCCC1", "% Inhibition": 6}
{"smiles": "Cn1cc(C(=O)NCCOc2ccc3ccccc3n2)cn1", "% Inhibition": -16}
{"smiles": "O=C(CNC(=O)c1ccc(Cl)cc1)Nc1ccc2[nH]c(=O)[nH]c2c1", "% Inhibition": 4}
{"smiles": "COc1ccc(-c2c(C(F)(F)F)n[nH]c2-c2ccc(OCc3ccccc3F)cc2O)cc1", "% Inhibition": 90}
{"smiles": "O=C1C[C@H](c2nc3cc(Cl)ccc3o2)CN1c1ccc(F)cc1", "% Inhibition": -10}
{"smiles": "CN(Cc1nc2ccccc2c(=O)[nH]1)C(=O)c1ccc(N2CCCC2=O)cc1", "% Inhibition": 4}
{"smiles": "CC(=O)c1cn(CC(=O)N2CCNC(=O)C2)c2ccccc12", "% Inhibition": 3}
{"smiles": "CCN(CC)c1nc(-c2ccccc2)c(C#N)c(N)c1C#N", "% Inhibition": 0}
{"smiles": "COc1cc(Cl)cc2c1OC=CC(C(=O)Nc1ccc(C)cc1)=C2", "% Inhibition": 3}
{"smiles": "CC(=O)N1CCN(c2nc3c(s2)C[C@@H](C(=O)NCc2ccccc2F)CC3)CC1", "% Inhibition": -16}
{"smiles": "COc1ccc([C@H](C)NC(=O)/C(=C/c2ccccc2Cl)c2ccccc2)cc1", "% Inhibition": -22}
{"smiles": "Cc1cc(OC(F)F)c(C(=O)NC(C)CCC2CCCO2)s1", "note": "(stereo not given)", "% Inhibition": 1}
{"smiles": "CC1CC1C(=O)Nc1cc(F)ccc1NC(=O)c1ccccn1", "note": "(stereo not given)", "% Inhibition": 1}
{"smiles": "Cc1nn(C)c(C)c1CCCN[C@@H](C)c1cccc(O)c1", "% Inhibition": 1}
{"smiles": "C[C@H]1CN(C(=O)CNc2ccccc2-c2ccccc2)CCO1", "% Inhibition": -11}
{"smiles": "CC(=O)c1cccc(S(=O)(=O)N2CCN(C(=O)c3ccc4c(c3)CCC4)CC2)c1", "% Inhibition": 2}
{"smiles": "Cc1c(Cl)c(C(F)(F)F)nn1[C@@H](C)C(=O)NC1CCN(C(C)C)CC1", "% Inhibition": -4}
{"smiles": "Cc1c(Br)c(C)n(NC(=O)c2cnn(Cc3ccccc3)c2)c(=O)c1C#N", "% Inhibition": -9}
{"smiles": "Cc1ccc(C(=O)N[C@@H](C)CCc2ccccc2)cc1S(=O)(=O)N1CCN(C)CC1", "% Inhibition": -20}
{"smiles": "COC(=O)C1=C(C(=O)OC)SC(=C2C(=S)C(C)(C)N(C(=O)c3cccnc3)c3c(C)cc(C)cc32)S1", "% Inhibition": 4}
{"smiles": "CC[C@H]1Cn2c(C(=O)N3CCN(c4ccccn4)CC3)cc3c(Cl)ccc(c32)O1", "% Inhibition": -8}
{"smiles": "CC1=NN(S(=O)(=O)c2ccc(F)cc2)C(=O)c2ccccc2O1", "% Inhibition": 2}
{"smiles": "CC(C1Cc2ccccc2O1)N(C)C(=O)c1n[nH]c2c1CCC2", "note": "(stereo not given)", "% Inhibition": -9}
{"smiles": "CN1CCC(=O)Nc2cc(C(=O)NCCS(=O)(=O)NCC3CCC3)ccc21", "% Inhibition": 3}
{"smiles": "Cc1ccccc1[C@H]1CCN(c2ccc(NC(=O)C3CCCC3)c(C(=O)O)c2)C1", "% Inhibition": -6}
{"smiles": "O=C(Nc1nc2ccc(F)cc2s1)c1cccc2c(Br)cccc12", "% Inhibition": -1}
{"smiles": "Cc1nc2cc3c(cc2n1CC(=O)Nc1ccc(Cl)cc1)OCCCO3", "% Inhibition": -4}
{"smiles": "Cn1nc2n(c1=O)CCN(S(=O)(=O)c1cccc3cccnc13)CC2", "% Inhibition": -14}
{"smiles": "O=C(O)[C@H](Cc1ccccc1)N(C(=O)c1ccncc1)C1CC1", "% Inhibition": -1}
{"smiles": "CC(C)(C)c1nc(Cn2cnc3ncc(Br)cc32)no1", "% Inhibition": 5}
{"smiles": "Cc1cc(OCCOCCNCCN)cc(C(C)C)c1", "% Inhibition": 34}
{"smiles": "c1cnc(N2CCOCC2)c(CNc2cnc3ccccc3n2)c1", "% Inhibition": -2}
{"smiles": "CCN(C)S(=O)(=O)N1CCN(Cc2c(C)nc3n2CCCC3)CC1", "% Inhibition": -11}
{"smiles": "NS(=O)(=O)c1ccc(-c2noc(C3(c4cccc(F)c4)CCC3)n2)cc1", "% Inhibition": -9}
{"smiles": "Clc1ccc(CNCCc2c[nH]cn2)cc1", "% Inhibition": -11}
{"smiles": "CCO[C@@H](C)C(=O)Nc1n[nH]c(Cc2cccc(F)c2)n1", "% Inhibition": -1}
{"smiles": "Cc1cc(S(=O)(=O)N(C)C[C@H](O)C(F)(F)F)sc1C", "% Inhibition": -7}
{"smiles": "COC(=O)c1ccccc1N(C)S(=O)(=O)c1cc2c(cc1C)OCC(=O)N2", "% Inhibition": -9}
{"smiles": "Cc1ccc(F)c(N2CCC(NS(=O)(=O)c3ccc(F)cc3Br)CC2)c1", "% Inhibition": -1}
{"smiles": "Cc1ccccc1CNC(=O)[C@H]1CCCN(c2nc3cccnc3n(Cc3ccccc3)c2=O)C1", "% Inhibition": -6}
